We go through 22 molecules from PMC12136788.

Where a chain is given by its changes, count along the chain named. Some of the results follow.

The chains are these.
T1: UNK ZnF1-3 (human, UniProt Q9C0B0 31-174)
T1 sequence: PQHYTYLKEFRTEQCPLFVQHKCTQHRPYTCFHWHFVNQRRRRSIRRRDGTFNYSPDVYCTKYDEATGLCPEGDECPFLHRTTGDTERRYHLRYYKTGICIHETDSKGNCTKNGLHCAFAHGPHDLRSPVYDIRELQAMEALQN

B1: chr16:89885150:89885151:-_ENSMUSG00000002489_ENSMUST00000163370|mus_hu|FALSE|FALSE (ssRNA)
RNA: GGGAGUUCUACAGUCCGACGAUCGCUCUGCUCAUCGCUGUGCGCCGAGCCGGCCUCCUCCAGGCUCUCGCUGUUGGUGGUGCUCAUCUCCAGCUCCCGCCGGAAGUUCUCGUACACCCCCUGACGAGCCGCAUCCCCGGUGGACAACAGAGGAUUGAGCAUCA
B2: chr16:3748964:3748965:+_ENSMUSG00000022529_ENSMUST00000023176|mus_mus|FALSE|FALSE (ssRNA)
RNA: GGGAGUUCUACAGUCCGACGAUCUUCACCACACUCUACAUCCAUACACAGCUUUUCUGCUGCAUGUAUUCUCUGGUGCCUAAUUAGGUUUGAGUUAUUAGAAAAGUUCUUGCCACACAAGGCACACAAAUGGAGUUUCUUGGGCAACAGAGGAUUGAGCAUCA
B3: chr14:89307221:89307222:+_ENSG00000165533_ENST00000346301|hu_mus|hu_hu_hu_mus_False|78_108 (ssRNA)
RNA: GGGAGUUCUACAGUCCGACGAUCUCCUGUCUGAUUAGUGCCAGGGAGCUUCAAAGACGUUCCAGGGCGUGGGACCUGAGCAAUAGCAUUUUCAUCCAGGAUCAUUUCAGCAAUUCCUUCCUGGUCCACAUCAAUUUCAUCUAUCAACAGAGGAUUGAGCAUCA
B4: 40853835_40853955_867_CDS_ENSG00000132872_ENST00000255224|human|control|control (ssRNA)
RNA: GGGAGUUCUACAGUCCGACGAUCCUGCUCAUCCAUGGCUGGCAAGCCACGGGCUUCCUUGAUAUUGACCACAAAUGCUUUUCUCUCGAAGUUGUAUUCUAAGGAGAAGAAGAGAGUUCCCAGCUUCUCUUGUUUCUCUUCUGACAACAGAGGAUUGAGCAUCA
B5: chr2:183853844:183853845:-_ENSG00000061676_ENST00000360982|hu_hu|motif|central (ssRNA)
RNA: GGGAGUUCUACAGUCCGACGAUCGUGAAUGUGGAAAACUUCAUCCCGAAAGAGAGAGAGGCAAGAGCUACUUUGAAGAGCGGGUUUCCAAAGGUUCAGUGCUGUAGCGUCAGUAUUUAGGAUCCCAUGGCACAAAAUAAAGCCCAACAGAGGAUUGAGCAUCA
B6: chrX:69798090:69798091:-_ENSMUSG00000031343_ENSMUST00000055966|mus_mus|mus_mus_mus_hu_False|28_78 (ssRNA)
RNA: GGGAGUUCUACAGUCCGACGAUCAAGUCCCCGGGUUCUUGUCGUCUUGAUUCCCCUUGGCUAGUGGUUCCAGGGAGAAUAUUAAUCAGGAAAAGAAUCCCAAGGCUGGUCACAUAACAGUGACUUGUUUGUGUGAUUAUCAUCCAACAGAGGAUUGAGCAUCA
B7: chr3:167437968:167437969:-_ENSG00000114209_ENST00000497056|hu_hu|FALSE|FALSE (ssRNA)
RNA: GGGAGUUCUACAGUCCGACGAUCUUCAUCUCUUCCAUUGUCAUCCUCAUUCAAAAGCCAACUACAGUUGAAAAAGCAGUGCUAAAAUGCAGAGGAAUCUUCAUUCACUGCAAUAUUUCUUCUCUUUUUUGGUGAUAAAAGAAUCAACAGAGGAUUGAGCAUCA
B8: chr1:163112212:163112213:-_ENSG00000143248_ENST00000313961|hu_hu|hu_hu_hu_mus_False|48_98 (ssRNA)
RNA: GGGAGUUCUACAGUCCGACGAUCUUUUAUUAUCAGUAAGCAUGAGUUACAUACUAGGCAAAGUAUUGGAUACAAUAAUCAGGAAACAAACACAAUUGGUCCAGAAUUUAAAACUUUAUGAGCGAAGUGCUGGCACAGGACUUACAACAGAGGAUUGAGCAUCA
B9: 3703505_3703625_952_CDS_ENSG00000130764_ENST00000378251|human|control|control (ssRNA)
RNA: GGGAGUUCUACAGUCCGACGAUCCUCGGGGCUCACUCUGACUGUCAGAGGUACGGGGUUUUCAGAGACGUGCAGGACCCUGAGCAGCAGCCGGCCGGCAUCUCCCACGUCCUGCUCCUCCCCAUCACCACCUUCCCGCCUCUGCAACAGAGGAUUGAGCAUCA
B10: 120934007_120934326_209_CDS_ENSG00000088986_ENST00000242577|human|control|control (ssRNA)
RNA: GGGAGUUCUACAGUCCGACGAUCUAUGUUGUAUUUCUCCAGCGCCUGAGUAGCGCACUCCACCGAGUCCUGUUGCAUCUCUUCCGACAUGUCCGCAUUUUUGAUCACGGCCUUUCGGUCGCACAUGGUUACCGUGGAGAAGGGCAACAGAGGAUUGAGCAUCA
B11: chr12:123346578:123346579:+_ENSG00000130787_ENST00000253083|hu_mus|FALSE|FALSE (ssRNA)
RNA: GGGAGUUCUACAGUCCGACGAUCGUGCUGACUAAACUUACGAAGAAAGAAAUACCUCGCAGCAUUCAGACUAUCUCUGAUGUCCGCUGCAGAUUUGUGGCUCAGGCCUGCUGGGUCCCAGCUGCUCGAGGCAGUUCCUACUUACAACAGAGGAUUGAGCAUCA
B12: 29885535_29885655_1869_CDS_ENSMUSG00000074909_ENSMUST00000099525|mouse|control|control (ssRNA)
RNA: GGGAGUUCUACAGUCCGACGAUCAAUAACCAGUGGGAGAUAUUGCUCAAAGUCUUUGCCAAGGAUUUUACACAUUCUAGCCCAGGCUGAAACCAUGUAAGAAGUCUGAGGGUCAUCAUCUUCCAUGUUAUUUAAGUCUGAUUGCAACAGAGGAUUGAGCAUCA
B13: chr14:89307221:89307222:+_ENSG00000165533_ENST00000346301|hu_mus|hu_hu_hu_mus_False|28_98 (ssRNA)
RNA: B3 RNA with C30U, A33G, G39U, C57U, U60G, A108U
B14: chr8:97196980:97196981:+_ENSMUSG00000031776_ENSMUST00000034228|mus_hu|motif|central (ssRNA)
RNA: GGGAGUUCUACAGUCCGACGAUCCCUAUUGGGCUGGUGACAUCCAGAAUGAUCCCAUUCAUUGGCUGGAGGUAGGACCGGGUGCCGCAGAUUGUUCUGGGAAGCUGGCAGAGAAGAUGAUUUGCACAAUGAAGUCACCACUAACAACAGAGGAUUGAGCAUCA
B15: chr3:184040909:184040910:+_ENSG00000114867_ENST00000411531|hu_mus|FALSE|FALSE (ssRNA)
RNA: GGGAGUUCUACAGUCCGACGAUCGCCAAGAUUGGCAAAAGAUGGAGUGAAAUCUGGGCCACAGUUUAUGCCAGGUAGUCUGGAGGGAUCCAGUUGCCGAAGUGGUGUUUUAUUGGCCUUGUCCAGCACCACAUCAGUGAUAUGCAACAGAGGAUUGAGCAUCA
B16: chr7:135612270:135612271:-_ENSG00000105887_ENST00000393085|hu_mus|hu_hu_hu_mus_False|8_28 (ssRNA)
RNA: GGGAGUUCUACAGUCCGACGAUCGUUUUUUUCUGAGAUGUUAAAUAGUACUUCAGUGGAAAACAAAACUUAACCUUUUAUUAAUGCGUGUUGUACCAAAAGCAGACCAUGGUUUUACAUUUAUUCACUCAAAAUAUCAUUAAGCAACAGAGGAUUGAGCAUCA
B17: chr13:33351070:33351071:+_ENSG00000083642_ENST00000315596|hu_hu|motif|central (ssRNA)
RNA: GGGAGUUCUACAGUCCGACGAUCUGAUCCCACCUGAGCUGCUUUGAUAUAUGACAGCCUCUCAUAAUUACUGGUGUCACGGUUGUUGUAAAUGAAGAAUAGUUGAAUAUGGAGAGAUUAAGACACAAUUCAAAACACUUUUUACAACAGAGGAUUGAGCAUCA
B18: chr7:34927866:34927867:-_ENSMUSG00000052997_ENSMUST00000102746|mus_hu|FALSE|FALSE (ssRNA)
RNA: GGGAGUUCUACAGUCCGACGAUCGCUUUUGGCAGCAUCUUCAGCUUGUUUGGGCCCCACUUUUUCCGGGGCAUCACCAACAACUUCAAAUUCAACGUCCUUUCCUAGGUCUUCACUAUGAAGGAUGUUGAUCAAUAAAGUAUACAACAGAGGAUUGAGCAUCA
B19: chr6:110421769:110421770:-_ENSG00000112290_ENST00000392587|hu_hu|FALSE|FALSE (ssRNA)
RNA: GGGAGUUCUACAGUCCGACGAUCUUUUUCUUACUCCAACCAAUCUACUUCAUCAAAUUCUGAAUCAUCUUCCGAAUCACUAUAUUCAACAGCAAUACGGCGAGACAGGAUGGUGGCAACAUCGUUUUCAAUGCGUUCAUGCUUCAACAGAGGAUUGAGCAUCA
B20: 87525337_87525457_254_CDS_ENSG00000140948_ENST00000268616|human|control|control (ssRNA)
RNA: GGGAGUUCUACAGUCCGACGAUCGCCCCCGCCGCCGUUCAGGCUGCUCUGGAUCUGCGUGAGCUCCUGGCGCAGCACCUGCUUCUGGUGGAAGCUGAAGGCCGGGUGGUUGGAGGCCAUGGUGAACAGCAGCAGGAACUCAUCCAACAGAGGAUUGAGCAUCA
B21: chr2:32640565:32640566:+_ENSG00000115760_ENST00000421745|hu_hu|motif|central (ssRNA)
RNA: GGGAGUUCUACAGUCCGACGAUCGCAUGUCCGCAGUCCUACCAACAAAUGAAUUCCGUCAGCACAAGGAGUUAUUGAGUCGGUACAAAGAUUCUCCUCCUCUGCAAACUUUGGCAGCCUCAAGCACUGAACCAAAGUCCCAGGCAACAGAGGAUUGAGCAUCA
B22: 45157708_45158563_316_5pUTR_ENSMUSG00000022664_ENSMUST00000023344|mouse|control|control (ssRNA)
RNA: GGGAGUUCUACAGUCCGACGAUCUUUUUAAUUGCCUUAAGAAGAUCACUUUCAUGAGCAGCCCCGUCGGCAGACCUCAGUCGCUCAGGGAAGGUUCUAGUGCAAGAACGGACAUCAUAGAGCCGACAUAGUGACUGCCUAAGUCAACAGAGGAUUGAGCAUCA

This experiment concerns the target T1, UNK ZnF1-3. Put plainly: nsRBNS (natural sequence RNA bind-n-seq); RBNS binding buffer (assumed for nsRBNS): 25 mM Tris pH 7.5, 150 mM KCl, 3 mM MgCl2, 0.01% Triton X-100, 500 ug/ml BSA, 20 U/ml SUPERase-In, 4 C; UNK is unkempt and MSI1 is Musashi-1; names of the RNAs are library labels; protein concentration not given here; high values mean tight binding.
B1 came in with a binding signal of 0.43 enrichment R.
As for B2, the figure is 0.795 enrichment R; as for B3, 0.919 enrichment R; as for B4, 0.638 enrichment R.
As for B5, the figure is 2.12 enrichment R; as for B6, 0.497 enrichment R; as for B7, 0.84 enrichment R.
B8: the binding signal is 1.46 enrichment R.
The same measure for B9: 0.704 enrichment R.
Molecule B10 displayed a binding signal of 0.711 enrichment R.
As for B11, the figure is 0.667 enrichment R.
B12 had a binding signal of 1.09 enrichment R.
The same measure for B13: 0.669 enrichment R; for B14: 1.31 enrichment R.
The same measure for B15: 0.572 enrichment R.
As for B16, the figure is 0.944 enrichment R.
B17: the binding signal is 2.19 enrichment R.
In the case of B18, the binding signal was determined as 0.719 enrichment R.
Regarding B19, the binding signal was determined as 0.909 enrichment R.
With B20, the binding signal was 0.566 enrichment R.
Regarding B21, the binding signal is 0.993 enrichment R.
The same measure for B22: 0.548 enrichment R.
